The test system of assay [1] is G strain of herpes simplex virus type 2. Description: Antiviral effect in HFF cells infected with HSV-2, crystal violet. The following applies: for Selectivity Index: HSV-2 in HFF cells.
For assay [2], the system named is E377 strain of herpes simplex virus type 1. Description: Antiviral effect in HFF cells infected with HSV-1 (E-377). The following applies: for Selectivity Index: HSV-1 (E-377), HFF cells.
Where [3] appears, read: Human alphaherpesvirus 2, HFF, 72 h.
Setting [4] is: Human alphaherpesvirus 1, HFF, 72 h.
Setting [5] is: HFF cells infected with HSV-1 (E-377), 3 days, crystal violet.
[6] abbreviates: HFF cells infected with HSV-2, 3 days.

As to `CCCCCCCCCCCCCCCCCCOCCOP(=O)(CO[C@H](CO)Cn1ccc(=O)[nH]c1=O)OCc1ccccc1` (stereo partly drawn) [Compound 221, benzyl octadecyloxyethyl 9-(S)-[3-hydroxy-2-(phosphonomethoxy)propyl]uracil], the “Selectivity Index” value in assay [1] is over 2.6. Further, the midpoint of the response in assay [1] (setting [3]), the EC50, lay at 3800 nM.
Consider `CCCCCCCCCCCCCCCCCCOCCOP(=O)(COCCn1cnc2c(N)ncnc21)OCc1ccccc1` (centres unmarked) [Compound 2, benzyl octadecyloxyethyl 9-(2-phosphonomethoxyethyl)adenine], for which the “Selectivity Index” value in assay [2] is recorded as under 4.2. Also, in assay [2] (setting [4]), the EC50 is over 4000 nM.
Regarding `CCCCCCCCCCCCCCCCCCOCCOP(=O)(CO[C@H](CO)Cn1ccc(N)nc1=O)OCc1ccccc1` (stereo partly drawn) [Compound 219, benzyl octadecyloxyethyl 1-(S)-[(3-hydroxy-2-phosphonomethoxy)propyl]cytosine], the results for the “Selectivity Index” value in assay [2] and in assay [1] were 15.4 and 131, respectively. For the same compound, the EC50 in assay [2] (setting [4]) stood at 1250 nM; in assay [1] (setting [3]) it was 100 nM.
`CCCCCCCCCCCCCCCCCCOC[C@H](COP(=O)(CO[C@H](CO)Cn1cnc2c(N)ncnc21)OCc1ccccc1)OCc1ccccc1` (stereo partly drawn) [Compound 230, benzyl 1-O-octadecyl-2-O-benzyl-sn-glyceryl 9-(S)-[(3-hydroxypropyl-2-phosphonomethoxy)propyl]adenine]: the EC50 was 2770 nM in assay [2] (setting [5]) and 710 nM in assay [1] (setting [6]). Further, in assay [1], the “Selectivity Index” value is recorded as 52.2.
Consider `CCCCCCCCCCCCCCCCCCOC[C@H](COP(=O)(CO[C@H](CO)Cn1ccc(N)nc1=O)OCc1ccccc1)OCc1ccccc1` (stereo partly drawn) [Compound 231, benzyl 1-O-octadecyl-2-O-benzyl-sn-glyceryl 1-(S)-[3-hydroxy-2-(phosphonomethoxy)propyl]cytosine], for which the values for the EC50 in assay [2] (setting [5]) and in assay [1] (setting [6]) were 1400 nM and 800 nM, respectively. Besides, in assay [1], the “Selectivity Index” value stood at 43.5.
Take `CCCCCCCCCCCCCCCCCCOCCOP(=O)(COCCn1cnc2c(=O)[nH]c(N)nc21)OCc1ccccc1` (racemic) [Compound 1, benzyl octadecyloxyethyl 9-(2-phosphonomethoxyethyl)guanine]: in assay [2], the “Selectivity Index” value is over 93. For the same compound, in assay [2] (setting [4]), the concentration for a half-maximal effect (EC50) came out at 1080 nM.
Consider `CCCCCCCCCCCCCCCCCCOCCOP(=O)(CO[C@H](CO)Cn1cnc2c(N)ncnc21)OCc1ccccc1` (stereo partly drawn) [Compound 218, benzyl octadecyloxyethyl 9-(S)-[3-hydroxy-2-(phosphonomethoxy)propyl] adenine], for which the “Selectivity Index” value stood at 15.8 in assay [2] and 173 in assay [1]. The EC50 in assay [2] (setting [4]) turned out to be 920 nM; in assay [1] (setting [3]), 40 nM.

Values taken from patent publication US10076533B2, “Acyclic nucleoside phosphonate diesters” (The Regents of the University of California, priority 2013, dated 2018).
